Measured values taken from PubChem BioAssay AID504333 (National Center for Advancing Translational Sciences (NCATS), 2011).
Several values for one entry are separate records, joined by “and”; a condition that tells them apart may be missing. Equal entries are not always repeated. The whole screen tested about 360,000 compounds, of which about 16,000 (4.4%) were called active. The inconclusive results got no clear call from the source; some entries with a clear call stand among them for comparison. The call rests on the fitted dose curve; in most records, active means well fitted inhibition curve with a large enough effect; inconclusive means small, poorly fitted or top-dose-only effect; inactive means no such curve, though single readings can be large or run the other way. Potencies beside an inconclusive call are fits to weak or partial responses and may not hold up.

Molecular target: Bromodomain adjacent to zinc finger domain protein 2B (Homo sapiens) (UniProt Q9UIF8)
Chain of UniProt Q9UIF8 (Q9UIF8 whole entry, looked up, the tested form may be a part): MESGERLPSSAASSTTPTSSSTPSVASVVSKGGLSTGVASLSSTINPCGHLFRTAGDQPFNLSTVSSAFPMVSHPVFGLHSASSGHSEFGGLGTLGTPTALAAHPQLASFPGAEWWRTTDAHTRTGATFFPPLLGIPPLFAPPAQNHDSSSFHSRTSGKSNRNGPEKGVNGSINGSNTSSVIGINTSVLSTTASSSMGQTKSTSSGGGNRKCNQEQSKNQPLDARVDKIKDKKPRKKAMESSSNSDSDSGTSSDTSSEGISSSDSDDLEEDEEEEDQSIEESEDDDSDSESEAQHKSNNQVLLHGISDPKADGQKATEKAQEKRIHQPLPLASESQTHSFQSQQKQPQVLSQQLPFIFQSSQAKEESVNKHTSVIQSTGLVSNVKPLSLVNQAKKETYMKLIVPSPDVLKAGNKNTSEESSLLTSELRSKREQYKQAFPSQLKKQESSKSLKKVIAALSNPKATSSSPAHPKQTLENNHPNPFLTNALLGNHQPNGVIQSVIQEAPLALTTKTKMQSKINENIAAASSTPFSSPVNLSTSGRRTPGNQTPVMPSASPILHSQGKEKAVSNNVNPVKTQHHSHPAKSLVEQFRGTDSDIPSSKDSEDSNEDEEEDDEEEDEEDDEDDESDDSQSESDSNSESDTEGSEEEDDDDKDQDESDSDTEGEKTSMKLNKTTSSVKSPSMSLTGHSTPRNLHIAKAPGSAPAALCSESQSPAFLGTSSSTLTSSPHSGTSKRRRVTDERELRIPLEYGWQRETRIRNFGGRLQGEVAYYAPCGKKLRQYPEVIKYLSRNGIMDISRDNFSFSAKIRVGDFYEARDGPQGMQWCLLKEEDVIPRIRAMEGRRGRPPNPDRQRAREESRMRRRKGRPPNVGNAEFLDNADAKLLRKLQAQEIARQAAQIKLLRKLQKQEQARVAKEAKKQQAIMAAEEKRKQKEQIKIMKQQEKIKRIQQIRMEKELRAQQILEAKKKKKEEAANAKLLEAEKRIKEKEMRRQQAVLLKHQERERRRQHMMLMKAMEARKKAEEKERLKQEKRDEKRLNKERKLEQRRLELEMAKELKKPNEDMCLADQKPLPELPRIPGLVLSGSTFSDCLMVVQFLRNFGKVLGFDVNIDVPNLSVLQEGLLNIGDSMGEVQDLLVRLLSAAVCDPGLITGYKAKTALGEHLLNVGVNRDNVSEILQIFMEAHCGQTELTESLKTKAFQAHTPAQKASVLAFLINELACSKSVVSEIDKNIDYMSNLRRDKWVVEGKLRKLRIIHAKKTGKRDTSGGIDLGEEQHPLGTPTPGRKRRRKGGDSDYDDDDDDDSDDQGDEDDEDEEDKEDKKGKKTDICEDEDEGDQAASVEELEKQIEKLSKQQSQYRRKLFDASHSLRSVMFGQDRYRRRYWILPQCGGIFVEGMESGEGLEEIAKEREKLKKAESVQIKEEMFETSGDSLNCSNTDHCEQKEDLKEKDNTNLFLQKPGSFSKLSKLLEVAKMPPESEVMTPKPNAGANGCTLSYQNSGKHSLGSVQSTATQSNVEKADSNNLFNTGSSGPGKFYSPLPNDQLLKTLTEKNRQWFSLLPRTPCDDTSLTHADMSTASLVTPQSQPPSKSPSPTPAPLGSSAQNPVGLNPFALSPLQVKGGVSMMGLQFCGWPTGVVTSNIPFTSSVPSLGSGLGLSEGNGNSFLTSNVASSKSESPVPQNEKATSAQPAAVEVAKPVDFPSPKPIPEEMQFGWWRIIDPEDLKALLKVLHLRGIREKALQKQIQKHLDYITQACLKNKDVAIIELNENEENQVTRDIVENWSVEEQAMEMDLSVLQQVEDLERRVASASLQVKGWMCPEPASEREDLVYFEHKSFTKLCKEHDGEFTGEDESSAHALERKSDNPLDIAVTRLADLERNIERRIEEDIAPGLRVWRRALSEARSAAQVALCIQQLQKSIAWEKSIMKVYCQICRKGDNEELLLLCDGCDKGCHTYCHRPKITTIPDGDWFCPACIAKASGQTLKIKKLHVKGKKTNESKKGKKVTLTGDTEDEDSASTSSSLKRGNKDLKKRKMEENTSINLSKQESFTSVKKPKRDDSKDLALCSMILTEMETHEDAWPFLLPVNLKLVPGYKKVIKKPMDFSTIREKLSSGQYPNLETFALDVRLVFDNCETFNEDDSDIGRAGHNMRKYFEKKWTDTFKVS
Test: qHTS Assay for Inhibitors of BAZ2B; further: nearly all actives have a fitted effect of over 60% in size
Details: AlphaScreen BAZ2B-H3K14Ac peptide displacement; activity change, negative = inhibition: at 114 µM (top of the series)
Procedure, shortened: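 AlphaScreen luminescence quantifies BAZ2B engagement of H3K14Ac peptide; the protein and biotinylated peptide are both at 50 nM final, buffer PBS pH 7.4 with 0.01% Tween-20, all steps at room temperature.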
On the % scale 0 is the no-effect control and ±100 the full control effect; potency means the concentration at half of the fitted maximal effect; tags describe the fitted curve by direction and shape.

Row | Compound | activity change, negative = inhibition | Potency
1 | CS(=O)(=O)N(CC(=O)NCCSCc1cccc(Cl)c1)c1ccccc1F | inactive: 1.71% | 
2 | C#C[C@]1(O)CC[C@H]2[C@@H]3CCc4cc(OC5CCCC5)ccc4[C@H]3CC[C@@]21C |  | inconclusive: 79.4 µM [inhibitor, single point]
3 | O=C1NCC(c2ccccc2)C1C(=O)N/N=C/c1ccc(Cl)s1 (stereo unspecified) |  | inconclusive: 70.8 µM [inhibitor, single point]
4 | CCCn1cc(SCC(=O)NCc2ccco2)c2ccccc21 |  | inconclusive: 89.1 µM [inhibitor, single point]
5 | CSS(=O)(=O)c1cccc2cccnc12 |  | active: 14.1 µM
6 | NNC(=O)c1nc[nH]c1C(=O)Nc1ccccc1 |  | active: 1.26 µM
7 | Cc1cccc(N/N=C/c2ccc(O)c(O)c2O)c1 |  | active: 50.1 µM
8 | C/C=C/C1=CC(=O)C[C@H](c2ccc(F)cc2)C1 | inactive: -5.89% | 
9 | COC(=O)c1ccc(CSc2nc(C)nc3sc(C)c(C)c23)o1 |  | inconclusive: 89.1 µM [inhibitor, single point]
10 | COc1cc(C(F)(F)F)nc(-c2ccccn2)n1 |  | inconclusive: 89.1 µM [inhibitor, single point]
11 | O=C(CCN1C(=O)/C(=C/c2ccccc2F)SC1=S)Nc1cccnc1 |  | active: 1.12 µM
12 | CCN(CC)c1ccc(/C=N/NC(=O)c2c[nH]c3ccccc23)cc1 |  | inconclusive: 31.6 µM [inhibitor, full curve, poor fit]
13 | C=CCn1c(SCC(=O)c2ccc(O)c(O)c2)nnc1-c1cccc(Cl)c1 |  | active: 50.1 µM
14 | CCOC(=O)c1ccccc1NC(=O)CSc1nc2ccccc2c(=O)[nH]1 | inactive: -4.86% | 
15 | CCOC(=O)c1c(/N=C/c2cc([N+](=O)[O-])ccc2O)sc(C)c1C |  | inconclusive: 79.4 µM [inhibitor, single point]
16 | CCOc1ccccc1NC(=O)c1cc(C(=O)c2cc(Br)ccc2O)coc1=N |  | inconclusive: 22.4 µM [inhibitor, full curve]
17 | COc1ccc(NC(=O)c2ccc3c(SCC(=O)O)c4c(nc3c2)CCCC4)c(OC)c1 |  | inconclusive: 31.6 µM [inhibitor, single point] and inconclusive: 79.4 µM [inhibitor, partial curve]
18 | COc1ccc2c(CC(=O)OCC(=O)Nc3ccc4c(c3)OCO4)coc2c1 |  | inconclusive: 50.1 µM [inhibitor, partial curve]
19 | O=C(NCCCN1CCN(c2ccc(F)cc2)CC1)c1cnn(-c2ccc(F)cc2)c1-n1cccc1 |  | inconclusive: 79.4 µM [inhibitor, single point]
20 | CCOC(=O)c1ccc(NC(=O)CCn2c(=O)c3cccn3c3cccnc32)cc1 | inactive: -14% | 
21 | COc1ccc(-c2nnc(SCC(=O)Nc3cc(C)on3)o2)cc1 | inactive: -30.5% | 
22 | O=C(NCCCn1ccnc1)C(=O)NCC1OCCN1S(=O)(=O)c1cc(F)ccc1F (stereo unspecified) |  | active: 7.94 µM
23 | O=C(NC1CCN(S(=O)(=O)c2cccc([N+](=O)[O-])c2)CC1)C1CCCCC1 |  | inconclusive: 89.1 µM [inhibitor, single point]

Row | Compound | activity change, negative = inhibition | Potency
24 | COc1cccc(C(=O)Nc2cccc(-c3cn4ccsc4n3)c2)c1OC |  | inconclusive: 79.4 µM [inhibitor, partial curve]
25 | Cc1ccccc1-c1noc(-c2cccnc2N2CCN(c3ccccc3)CC2)n1 |  | inconclusive: 89.1 µM [inhibitor, single point]
26 | COc1ccc(/C=N/NC(=O)c2ccncc2)cc1Cn1nc([N+](=O)[O-])c(Br)c1C |  | inconclusive: 89.1 µM [inhibitor, single point]
27 | COc1cccc(C(=O)NCC(c2ccc(N(C)C)cc2)N2CCc3ccccc32)c1 (stereo unspecified) |  | active: 7.94 µM
28 | O=C(CSc1nnc(COc2ccccc2)n1Cc1ccco1)c1ccc(F)cc1 |  | inconclusive: 56.2 µM [inhibitor, partial curve]
29 | CC(=O)Nc1ccc(NC(=O)COC(=O)C2c3ccccc3Oc3ccccc32)cc1 |  | inconclusive: 89.1 µM [inhibitor, single point]
30 | COC(=O)c1cc2oc(C)cc2n1CC(=O)N1CCCc2ccccc21 |  | active: 89.1 µM
31 | COCCCNC(=O)c1ccc2c(=O)n(CC3CCCO3)c(=S)[nH]c2c1 (stereo unspecified) |  | inconclusive: 89.1 µM [inhibitor, single point]
32 | Cc1cc(C(=O)N/N=C/c2c(CO)cnc(C)c2O)c2ccccc2n1 |  | active: 25.1 µM
33 | CCOc1ncccc1C(=O)OCC(=O)c1cc(C)n(Cc2ccco2)c1C |  | active: 50.1 µM
34 | Cc1ccnc(SCc2cc(=O)c(OC(=O)c3ccc(Br)o3)co2)n1 | inactive: -1.06% | 
35 | Cc1ccc(NC(=O)Cn2cc(S(=O)(=O)N3CCCC3)c(S(=O)(=O)N3CCCC3)c2)cc1F | inactive: 10.7% [at 57.1 µM] | 
36 | Nc1ncnc2sc3c(c12)CCNC3 |  | inconclusive: 89.1 µM [inhibitor, single point]
37 | CC(C)(CO)NC(=O)CC1C(=O)NCCN1Cc1ccc(-c2ccccc2)cc1 (stereo unspecified) |  | inconclusive: 89.1 µM [inhibitor, single point]
38 | Cc1nn(-c2ccc(N3CCCCC3)nn2)c(C)c1CCC(=O)NCc1ccc(OC(C)C)cc1 | inactive: -12.8% | 
39 | CCCc1cc(=O)[nH]c(SCC(=O)N2CCN(c3ccccc3OC)CC2)n1 | inactive: -12.8% | 
40 | CCOc1ccc(Cl)cc1CNCCCSc1nc(C)cc(C)n1 |  | inconclusive: 89.1 µM [inhibitor, single point]
41 | COc1cccc(N2CCN(c3ncnc4c3[nH]c3ccccc34)CC2C)c1 (stereo unspecified) |  | inconclusive: 39.8 µM [inhibitor, partial curve]
42 | Cc1ccccc1N1CCN(Cc2c[nH]c3ccccc23)CC1 |  | inconclusive: 70.8 µM [inhibitor, single point]
43 | O=C1CCCN1c1ccc(S(=O)(=O)Oc2ccc(Cl)cc2)cc1[N+](=O)[O-] |  | inconclusive: 50.1 µM [inhibitor, partial curve]
44 | O=C(O)c1csc(N/N=C/c2ccc(Br)cc2)n1 |  | active: 79.4 µM
45 | O=C(NCCNCc1cccs1)c1ccccc1F |  | active: 50.1 µM
46 | N#Cc1cccn1-c1nccs1 |  | inconclusive: 89.1 µM [inhibitor, single point]
